Where a name gives a salt, the structure may show the parent alone. Over roughly 2,000 compounds, “fractional viability relative to vehicle” has its median near 0.91; the lowest 2% begin near 0.045. This is one part of the list.
Tested on: TYKNU
Experiment: fractional viability relative to vehicle; TYKNU is a high-grade serous ovarian cancer line; higher = less growth inhibition
Conditions: 72 h
Summary of the method: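 TYKNU control cells or lentiCRISPRv2 knockout derivatives were seeded at 500 cells per well into drug-stamped 384-well plates holding a ~2100-compound library at 2 or 10 μM, in duplicate. Cells were grown at 37 °C in 5% CO2 in RPMI 1640 with 10% FBS, and drug treatment lasted 72 h. Viability was read by Cell Titer Glo luminescence. Duplicate treatment wells were averaged and normalised to duplicate control wells from the same plate position.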

[1] = 2uM, genotype: DNM1L knockout (sgDNM1L #1)
[2] = 2uM, genotype: sgCTRLA1 (non-targeting control)
[3] = 10uM, genotype: DNM1L knockout (sgDNM1L #1)
[4] = 10uM, genotype: sgCTRLA1 (non-targeting control)

Row | SMILES | fractional viability [1] | fractional viability [2] | fractional viability [3] | fractional viability [4]
1 | COc1ccc(CC(C)NCC(O)c2ccc(O)c(NC=O)c2)cc1 (stereo not drawn) [Formoterol Hemifumarate] | 0.759 | 0.786 | 0.661 | 0.749
2 | Cc1ccc2c(c1)C(=O)C1(O)CCN(c3ccccc3)C1=N2 (single isomer, unassigned; (-)) [(-)-Blebbistatin] | 0.841 | 1.01 | 0.7 | 0.985
3 | CC(C)C[C@H](NC(=O)[C@H](Cc1ccccc1)NC(=O)c1cnccn1)B(O)O [Bortezomib (PS-341)] | 0.1 | 0.0838 | 0.101 | 0.0762
4 | CC1(C)CCC(c2ccc(Cl)cc2)=C(CN2CCN(c3ccc(C(=O)NS(=O)(=O)c4ccc(N[C@H](CCN5CCOCC5)CSc5ccccc5)c(S(=O)(=O)C(F)(F)F)c4)cc3)CC2)C1 [ABT-263 (Navitoclax)] | 0.877 | 0.977 | 0.296 | 0.73
5 | O=C(COc1ccc(C(=O)c2ccccc2)cc1)NC1CCN(Cc2ccccc2)CC1 [AdipoRon] | 0.774 | 0.949 | 0.575 | 0.596
6 | O=C(NOCC1CC1)c1ccc(F)c(F)c1Nc1ccc(I)cc1Cl | 0.693 | 0.805 | 0.247 | 0.247
7 | Nc1nc(F)nc2c1ncn2[C@@H]1O[C@H](COP(=O)(O)O)[C@@H](O)[C@@H]1O [Fludarabine Phosphate] | 0.26 | 0.307 | 0.217 | 0.167
8 | CCOC(=O)N1CCC(=C2c3ccc(Cl)cc3CCc3cccnc32)CC1 [Loratadine] | 1.23 | 1.1 | 0.839 | 1.08
9 | CC[C@H]1OC(=O)[C@H](C)[C@@H](O[C@H]2C[C@@](C)(OC)[C@@H](O)[C@H](C)O2)[C@H](C)[C@@H](O[C@@H]2O[C@H](C)C[C@H](N(C)C)[C@H]2O)[C@](C)(O)C[C@@H](C)C(=O)[C@H](C)[C@@H](O)[C@]1(C)O [Erythromycin] | 1.02 | 1.1 | 0.951 | 0.965
10 | c1ccc(CC2=NCCN2)cc1 [Tolazoline HCl] | 0.978 | 1.03 | 0.816 | 1.08
11 | CC(C)(Oc1ccc(CCNC(=O)c2ccc(Cl)cc2)cc1)C(=O)O [Bezafibrate] | 0.813 | 1.09 | 0.711 | 1.02
12 | O=C(O)CCc1nc(-c2ccccc2)c(-c2ccccc2)o1 [Oxaprozin] | 0.771 | 1.13 | 0.799 | 1.03
13 | O=C(c1cc(Cc2n[nH]c(=O)c3ccccc23)ccc1F)N1CCN(C(=O)C2CC2)CC1 | 0.967 | 1.06 | 0.727 | 1.02
14 | O=C(O)CCCc1c[nH]c2ccccc12 [3-Indolebutyric acid (IBA)] | 0.929 | 1.17 | 0.803 | 1.08
15 | O=C1c2ccccc2C(=O)C1c1ccccc1 [Phenindione] | 0.918 | 1.13 | 0.798 | 1.05
16 | Cc1ccc(N(CC2=NCCN2)c2cccc(O)c2)cc1 [Phentolamine Mesylate] | 1.02 | 1.12 | 0.918 | 0.906
17 | CC(C)Nc1cc(-c2c[nH]c(C(=O)N[C@H](CO)c3cccc(Cl)c3)c2)c(Cl)cn1 | 0.251 | 0.255 | 0.232 | 0.201
18 | CNC[C@@H](O)c1ccc(O)c(O)c1 [L-Adrenaline] | 0.842 | 1 | 0.784 | 0.91
19 | CCc1ccc(CCOc2ccc(CC3SC(=O)NC3=O)cc2)nc1 (stereo not drawn) [Pioglitazone] | 0.886 | 0.965 | 0.758 | 0.766
20 | CCc1ccc(CCOc2ccc(CC3SC(=O)NC3=O)cc2)nc1 (stereo not drawn) [Pioglitazone HCl] | 1.08 | 1.22 | 0.855 | 1.14
21 | CO[C@H]1/C=C/O[C@@]2(C)Oc3c(C)c(O)c4c(O)c(c(/C=N/N5CCN(C)CC5)c(O)c4c3C2=O)NC(=O)/C(C)=C\C=C\[C@H](C)[C@H](O)[C@@H](C)[C@@H](O)[C@@H](C)[C@H](OC(C)=O)[C@@H]1C [Rifampin] | 0.971 | 1.05 | 0.66 | 0.955
22 | Cc1c(Cl)cccc1Nc1ccccc1C(=O)O [Tolfenamic Acid] | 0.957 | 1.03 | 1.01 | 1.03
23 | CCCSc1ccc2[nH]c(NC(=O)OC)nc2c1 [Albendazole] | 0.27 | 0.3 | 0.136 | 0.192
24 | C#C[C@]1(OC(C)=O)CC[C@H]2[C@@H]3CCC4=C[C@@H](OC(C)=O)CC[C@@H]4[C@H]3CC[C@@]21C [Ethynodiol diacetate] | 1 | 1.19 | 0.788 | 1.09
25 | Nc1ccc(S(=O)(=O)Nc2ncccn2)cc1 [Sulfadiazine] | 1.09 | 1.02 | 0.949 | 0.991
26 | CCCC(C)NC(=O)c1ccc(Cl)c(Cl)c1 (stereo not drawn) | 0.893 | 0.909 | 0.756 | 0.714
27 | CNC1CCC(N(Cc2cccc(-c3ccncc3)c2)C(=O)c2sc3ccccc3c2Cl)CC1 (stereo not drawn) [Smoothened Agonist (SAG) HCl] | 0.827 | 0.917 | 0.168 | 0.128
